Reference: PubChem BioAssay AID504332 (National Center for Advancing Translational Sciences (NCATS), 2011)
In all, about 350,000 compounds went through this assay and about 31,000 (8.9%) were called active. Inconclusive means that the source gave no clear call. Such entries were picked first, then a sample of the others. Calls follow the shape of the dose curve; as a rule, active = well fitted inhibition curve with a large enough effect; inconclusive = small, poorly fitted or top-dose-only effect; inactive = no such curve, though single readings can be large or run the other way. A potency beside an inconclusive call is a rough fit, not a confirmed value.

Target: Histone-lysine N-methyltransferase EHMT2 (Homo sapiens) (UniProt Q96KQ7)
Assay: qHTS Assay for Inhibitors of Histone Lysine Methyltransferase G9a; also: nearly all actives have a fitted effect of over 75% in size
Conditions: G9a H3K9 monomethylation, AlphaScreen, 2 h; activity, negative = inhibition: at 59 µM (top of the series) unless noted
Summary of the method: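 Quantitative HTS format: methyltransferase activity on a biotin-tagged H3K9 peptide is measured by AlphaScreen, using a rabbit anti-monomethyl-H3K9 antibody with streptavidin donor and anti-IgG acceptor beads. Final levels are 20 nM enzyme, 500 nM peptide, 20 uM SAM; 2 h RT.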
% is scaled to controls: 0 for no effect and ±100 for the full control effect; potency is read from the fitted curve at half-maximal effect; tags tell the direction and shape of the fitted curve.

Sequence of UniProt Q96KQ7 (Q96KQ7 whole entry, looked up): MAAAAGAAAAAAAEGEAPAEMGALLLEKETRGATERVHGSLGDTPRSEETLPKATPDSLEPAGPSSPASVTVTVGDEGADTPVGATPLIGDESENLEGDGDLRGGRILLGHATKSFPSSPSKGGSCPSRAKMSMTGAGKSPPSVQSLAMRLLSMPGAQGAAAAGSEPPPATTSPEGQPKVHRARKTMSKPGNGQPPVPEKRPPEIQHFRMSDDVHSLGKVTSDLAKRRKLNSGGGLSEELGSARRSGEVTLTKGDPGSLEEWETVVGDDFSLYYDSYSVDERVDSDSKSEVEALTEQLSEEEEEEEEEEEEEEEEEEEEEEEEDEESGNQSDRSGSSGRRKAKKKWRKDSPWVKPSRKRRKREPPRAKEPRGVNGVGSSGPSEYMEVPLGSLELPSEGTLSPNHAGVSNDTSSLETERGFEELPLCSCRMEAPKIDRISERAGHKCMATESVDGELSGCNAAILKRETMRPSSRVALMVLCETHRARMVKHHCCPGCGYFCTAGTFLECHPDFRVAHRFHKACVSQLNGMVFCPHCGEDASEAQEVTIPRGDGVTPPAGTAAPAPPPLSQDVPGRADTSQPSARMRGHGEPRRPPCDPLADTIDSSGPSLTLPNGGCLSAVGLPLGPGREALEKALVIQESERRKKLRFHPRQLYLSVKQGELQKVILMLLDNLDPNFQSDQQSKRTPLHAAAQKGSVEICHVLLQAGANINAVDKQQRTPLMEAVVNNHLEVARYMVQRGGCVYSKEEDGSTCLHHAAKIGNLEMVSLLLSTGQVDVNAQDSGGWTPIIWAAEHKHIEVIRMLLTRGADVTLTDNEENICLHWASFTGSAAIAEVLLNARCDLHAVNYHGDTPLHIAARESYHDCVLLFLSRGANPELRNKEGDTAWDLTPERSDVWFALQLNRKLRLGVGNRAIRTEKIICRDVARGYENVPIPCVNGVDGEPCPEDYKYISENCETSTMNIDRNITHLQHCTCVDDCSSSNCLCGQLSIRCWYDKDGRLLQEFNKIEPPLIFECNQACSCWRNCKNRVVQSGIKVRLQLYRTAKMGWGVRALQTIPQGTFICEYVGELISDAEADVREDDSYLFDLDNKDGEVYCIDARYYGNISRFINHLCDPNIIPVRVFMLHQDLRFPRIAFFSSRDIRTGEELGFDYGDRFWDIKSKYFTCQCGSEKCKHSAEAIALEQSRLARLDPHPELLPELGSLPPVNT

SMILES | Potency | activity, negative = inhibition
CCN1CCN(c2c(C(=O)c3ccc(OC)cc3)cnc3ccccc23)CC1 | active: 50.1 µM | –
O=C(Cn1ccc2cc(S(=O)(=O)N3CCCCCC3)ccc21)NCc1cccc(Cl)c1 | inactive | –
O=C(Nc1ccc(-c2nc3ncccc3o2)cc1)c1ccc(Br)o1 | inconclusive: 35.5 µM [inhibitor, single point] | –
COc1cccc(C(=O)CSc2nnc(-c3cc(OC)c(OC)c(OC)c3)o2)c1 | inconclusive: 79.4 µM [inhibitor, single point] | –
CCOc1c(Cl)cc(/C=C/C(=O)N(CC)CC(=O)Nc2ccc(NC(C)=O)cc2)cc1OC | inconclusive: 89.1 µM [inhibitor, partial curve, poor fit] | –
CCN(C(=O)CSc1nc(-c2ccccc2)c(-c2ccccc2)[nH]1)C1CCS(=O)(=O)C1 (configuration not stated) | inconclusive: 7.94 µM [inhibitor, partial curve, poor fit] | –
COc1ccc(Nc2nc(C(=O)NCCCN3CCOCC3)cs2)cc1 | inconclusive: 89.1 µM [inhibitor, single point] | –
CCOC(=O)/C(=C/C=C1\Sc2ccccc2N1CC)C(C)=O | inconclusive: 25.1 µM [inhibitor, single point] | –
CC(C)C1Nc2ccc(C(=O)O)cc2C2C=CCC21 (configuration not stated) | active: 10 µM | –
C=CCNc1sc(C(=O)c2ccccc2)c(N)c1-c1nc2ccccc2s1 | active: 22.4 µM | –
COc1cccc(NC(=S)N2CCN(S(C)(=O)=O)CC2)c1 | inconclusive: 31.6 µM [inhibitor, partial curve, poor fit] | –
COc1ccc(N2CCN(C(=O)Cc3ccc(S(=O)(=O)N4CCOCC4)s3)CC2)cc1 | active: 44.7 µM | –
COc1ccc(CNC(=O)C2CCN(S(=O)(=O)N3CCCC3)CC2)c(OC)c1 | inactive | –
COc1ccc(NC(=O)Cn2nnc(-c3nc(-c4ccncc4)no3)c2N)cc1OC | inconclusive: 7.08 µM [inhibitor, single point] | –
CCc1cccc(-n2nnc(S(=O)(=O)c3ccc(OC)cc3)c2C)c1 | inactive | –
O=C(CSc1nc2ccccc2[nH]1)Nc1c(F)cccc1F | inconclusive: 50.1 µM [inhibitor, partial curve, poor fit] | –
Cc1ccccc1NC(=O)CN1C(=O)S/C(=C\c2ccc(-c3cccc(C(=O)O)c3C)o2)C1=O | active: 20 µM | –
CC(=O)Nc1ccc(S(=O)(=O)N(C)CC(=O)OCC(=O)Nc2cccnc2Cl)cc1 | inconclusive: 6.31 µM [inhibitor, single point] | –
COCCn1c(C)cc(O)c(C(c2ccccc2F)N2CCN(c3ccccc3)CC2)c1=O (configuration not stated) | inconclusive: 39.8 µM [inhibitor, single point] | –
COc1ccc(Cl)cc1NC(=S)NCc1ccccn1 | active: 20 µM | –
CCC(CC)c1nnc(NC(=O)C2=COCCO2)s1 | active: 39.8 µM | –
S=C(Nc1ccc2cn[nH]c2c1)Nc1ccccc1Cl | inconclusive: 17.8 µM [inhibitor, partial curve, poor fit] | –
COc1ccc(CCC(=O)N2CCCC(Nc3ccc(C)c(C)c3)C2)cc1OC (configuration not stated) | active: 44.7 µM | –
O=C1NC(=S)S/C1=C\c1ccc(SCc2ccccc2)o1 | inconclusive: 20 µM [inhibitor, single point] | –

SMILES | Potency | activity, negative = inhibition
Cc1ccc(C)c(NC(=O)c2cnc3sc(N4CCOCC4)nn3c2=O)c1 | inactive | –
COc1ccc(S(=O)(=O)N(CCC#N)Cc2ccco2)cc1OC | inconclusive: 39.8 µM [inhibitor, single point] | –
Cc1occc1-c1nnc(SCC(=O)N(C)CCC#N)n1N | inconclusive: 25.1 µM [inhibitor, partial curve, poor fit] | –
CCOC(=O)/C=C1\CN(C(C)c2ccccc2)S(=O)(=O)c2ccccc21 (configuration not stated) | active: 17.8 µM | –
Cc1ccc(NC(=O)CCCCCC2NC(=O)NC2C)cc1 (configuration not stated) | inconclusive: 1.26 µM [inhibitor, full curve, poor fit] | –
COc1cccc(N=Cc2c(O)n(-c3cccc(C)n3)c(=O)c3ccccc23)c1 | inconclusive: 1.41 µM [inhibitor, partial curve, poor fit] | –
O=C(Nc1cccc(-c2cn3cccnc3n2)c1)c1ccco1 | inconclusive: 56.2 µM [inhibitor, partial curve, poor fit] | –
Cc1ccc(NC(=O)c2cccc(NC(=O)N3CCSc4ncccc43)c2)cc1F | inactive | –
O=C(CSc1nnc(-c2ccccc2)c2ccccc12)NCCN1C(=O)CSC1=O | inconclusive: 20 µM [inhibitor, single point] | –
CCOc1ccc(CNC(=O)c2ccc(NC(=O)N3CCSc4ncccc43)cc2)cc1 | inactive | –
O=C(COC(=O)c1ccccc1Nc1ccccc1)NCc1ccccc1Cl | inactive | –
CCNc1nc(SCC(N)=O)nc2sc3c(c12)CCN(C)C3 | inconclusive: 79.4 µM [inhibitor, single point] | –
CCOc1ccccc1OCC(=O)Nc1nnc(COC)s1 | inconclusive: 25.1 µM [inhibitor, single point] | –
COc1ccccc1NC(=S)NC(C)=O | inactive | –
COc1ccccc1OCCNC(=O)C1CCN(C(C)=O)CC1 | inconclusive: 89.1 µM [inhibitor, single point] | –
CC1CCN(C(NC(=O)c2ccco2)C(=O)c2ccccc2)CC1 (configuration not stated) | inconclusive: 89.1 µM [inhibitor, single point] | –
COc1ccc(OC)c2c1cc(C(=O)N[C@H](C(=O)N1CCC(C(=O)O)CC1)C(C)C)n2C | inconclusive: 79.4 µM [inhibitor, single point] | –
Cc1c(CCC(=O)O)c(=O)oc2cc(OCc3ccc(Br)cc3)ccc12 | inconclusive: 89.1 µM [inhibitor, single point] | –
COc1cccc2sc(N3CCN(C(=O)CS(=O)(=O)c4ccc(Cl)cc4)CC3)nc12 | inactive | –
CC(C)N(C(=O)c1cc2c(Cl)nc3ccccc3c2s1)C1CCCCC1 | inactive | –
CCOC(=O)c1scc(-c2ccc(C)cc2)c1S(=O)(=O)Nc1cccc(CC)c1 | inactive | –
CCN(CC(=O)Nc1c(F)cccc1F)C(=O)C1(c2ccccc2)CC1 | inactive | –
Cc1onc(-c2ccc(Br)cc2)c1C(=O)Nc1ccc(Br)cc1F | inactive | –
Cc1cc(OCC(C)C)ccc1/C(O)=C1/C(=O)C(=O)N(Cc2cccnc2)C1c1ccncc1 (configuration not stated) | inconclusive: 35.5 µM [inhibitor, single point] | –

SMILES | Potency | activity, negative = inhibition
CCC(=O)Nc1ccc(N2CCCCC2)c(C(=O)Nc2ccccc2C)c1 | inconclusive: 6.31 µM [inhibitor, single point] | –
CC1(C)C/C(=N\NC(=S)Nc2ccccc2F)c2cc(O)ccc2O1 | inconclusive: 44.7 µM [inhibitor, partial curve] | –
O=C(C1CCOCC1)N1CCC(CO)(CCc2ccccc2)CC1 | inconclusive: 89.1 µM [inhibitor, single point] | –
COc1ccc(S(=O)(=O)Oc2ccc3c(c2)O/C(=C\c2cccnc2)C3=O)cc1 | active: 39.8 µM | –
Cc1cc(C)c(S(=O)(=O)N2CCN(Cc3nc4ccc(C)cc4o3)CC2)c(C)c1 | – | inactive: -1.86% [at 12.7 µM]
COc1ccc(CN2CCN(S(=O)(=O)c3ccc(NC(C)=O)cc3)CC2)cc1OC | inconclusive: 7.94 µM [inhibitor, full curve, poor fit] | –
O=C(O)CC(NS(=O)(=O)c1ccc(Br)s1)c1ccccc1 (configuration not stated) | inactive | –
CCN1C(C(=O)c2ccccc2)=C(OC(=O)COc2ccccc2)c2ccccc2S1(=O)=O | active: 12.6 µM | –
O=C(CSC1=Nc2ccccc2C2=NC(c3ccccc3)C(=O)N12)NCC1CCCO1 (configuration not stated) | inconclusive: 89.1 µM [inhibitor, single point] | –
CSC1=C(C#N)C(c2ccc3c(c2)OCO3)C2=C(CCCC2=O)N1 (configuration not stated) | inconclusive: 39.8 µM [inhibitor, single point] | –
CCn1ccnc1CNC(=O)CC1C(=O)NCCN1Cc1ccccc1F (configuration not stated) | – | inactive: 20.2% [at 12.7 µM]
CC(C)(C)NC(=S)NNC(=O)c1ccccc1Cl | inconclusive: 39.8 µM [inhibitor, single point] | –
CCOC(=O)c1ccccc1Nc1cc(C)nc2nc(-c3ccco3)nn12 | inconclusive: 20 µM [inhibitor, single point] | –
Cc1nn(C)c(C(=O)NNC(=S)Nc2ccc(Cl)cc2)c1[N+](=O)[O-] | inconclusive: 8.91 µM [inhibitor, single point] | –
CSCC[C@@H](C(=O)Nc1ccc2c(c1)OCCO2)N1Cc2ccccc2C1=O | inconclusive: 89.1 µM [inhibitor, single point] | –
Cc1cccc(C(=O)Nc2cc3c(cc2N2CCOCC2)n(C)c(=O)n3C)c1 | inactive | –
CC(C)(CNC(=O)c1ccc(-c2cccc(C(F)(F)F)c2)o1)N1CCOCC1 | – | inactive: -20.6% [at 12.7 µM]
CC(=O)c1ccc(C(=O)N(Cc2cccnc2)c2nc3c(Cl)cccc3s2)cc1 | inactive | –
COc1ccc(CN(CC(=O)NC2CCCC2)C(=O)c2csnn2)cc1 | inactive | –
COc1ccc(NC(=O)CCCCCn2nnc3ccccc3c2=O)cc1OC | inactive | –
N#CC1=C(N)SC(N)=C(C#N)C1c1ccoc1 | active: 2 µM | –
Cn1nnnc1SCC(=O)Nc1ccc2c(c1)OCCO2 | inactive | –
CSc1cccc(NC(=O)Cn2nc(C)c3sc4ccccc4c3c2=O)c1 | inconclusive: 39.8 µM [inhibitor, single point] | –
CCN1CCc2c(sc(NC(=O)c3cc4ccccc4cc3OC)c2C(N)=O)C1 | inconclusive: 89.1 µM [inhibitor, single point] | –
